In PubChem BioAssay (NCATS):
The inconclusive results got no clear call from the source; some entries with a clear call stand among them for comparison. For some assays here: Potencies beside an inconclusive call are fits to weak or partial responses and may not hold up. Activity calls are given as the source filed them. Calls come from the whole dose curve; as a rule, active = well fitted curve in the direction sought with a large enough effect; inconclusive = small, poorly fitted or top-dose-only effect, or another doubt; inactive = no such curve, though single readings can be large; an effect the other way counts as inactive or inconclusive.

Columns and labels:
[1] = qHTS of pediatric cancer cell lines to identify multiple opportunities for drug repurposing: Primary screen for DAOY cells (AID 1347090); note: nearly all actives have a fitted effect of over 55% in size; note: potency is the fitted concentration of half-maximal effect
Method in brief: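 Viability measured as metabolically active cells via CellTiter-Glo luminescence following 48 hours of compound exposure, 11-point dilutions in confirmatory testing. 500-1,000 cells/well plated 5 hours before dosing; controls were DMSO and 2.3 µM bortezomib.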

[2] = Quantitative High-Throughput drug screen in 47 multiple myeloma cell lines against the NCATS MIPE library collection: Karpas417_ECACC cell viability assay (AID 1918961); note: potency is the fitted concentration of half-maximal effect
Method in brief: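 Viability readout: CellTiter-Glo luminescence following 5 min room-temperature incubation with reagent. Prior exposure: 48 h, 37C, humidified 5% CO2, 500 cells per well.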

[3] = Quantitative High-Throughput drug screen in 47 multiple myeloma cell lines against the NCATS MIPE library collection: KMS12BM_JCRB cell viability assay (AID 1918971); note: nearly all actives have a fitted effect of over 35% in size; note: potency is the fitted concentration of half-maximal effect
Method in brief: (§1)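 Myeloma cells (500 per well) were exposed to MIPE 4.0 compounds by pin transfer and incubated 48 hours at 37C, 5% CO2. Viability was read as ATP by CellTiter-Glo luminescence, normalised to DMSO (100%) and media-only (0%) wells.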

[4] = Quantitative High-Throughput drug screen in 47 multiple myeloma cell lines against the NCATS MIPE library collection: KMS26_JCRB cell viability assay (AID 1918975); note: nearly all actives have a fitted effect of over 45% in size; note: potency is the fitted concentration of half-maximal effect
Method in brief: as §1

[5] = Quantitative High-Throughput drug screen in 47 multiple myeloma cell lines against the NCATS MIPE library collection: MOLP8_DSMZ cell viability assay (AID 1918977); note: potency is the fitted concentration of half-maximal effect; nearly all actives have a fitted effect of over 45% in size
Method in brief: (§2)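 Cells were exposed to library compounds for 48 hours, after which ATP was measured by CellTiter-Glo. Signal was taken as median relative luminescence units.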

[6] = Quantitative High-Throughput drug screen in 47 multiple myeloma cell lines against the NCATS MIPE library collection: KMS34_JCRB cell viability assay (AID 1918985); note: nearly all actives have a fitted effect of over 40% in size
Method in brief: as §2

[7] = Quantitative High-Throughput drug screen in 47 multiple myeloma cell lines against the NCATS MIPE library collection: OCIMY5_PLB cell viability assay (AID 1918988); note: potency is the fitted concentration of half-maximal effect; nearly all actives have a fitted effect of over 65% in size
Method in brief: as §2

[8] = Quantitative High-Throughput drug screen in 47 multiple myeloma cell lines against the NCATS MIPE library collection: SKMM1_PLB cell viability assay (AID 1919863); details: SKMM1 myeloma viability, CellTiter-Glo ATP, 48 h; viability: hits give low values; note: potency is the fitted concentration of half-maximal effect; nearly all actives have a fitted effect of over 35% in size
Method in brief: as §2

[9] = Quantitative High-Throughput drug screen in 47 multiple myeloma cell lines against the NCATS MIPE library collection: PCM6_Riken cell viability assay (AID 1919870); note: nearly all actives have a fitted effect of over 30% in size
Method in brief: as §2

[10] = Quantitative High-Throughput drug screen in 47 multiple myeloma cell lines against the NCATS MIPE library collection: KMS11_JCRBsus cell viability assay (AID 1919873); note: nearly all actives have a fitted effect of over 50% in size; note: potency is the fitted concentration of half-maximal effect
Method in brief: as §2

[11] = qHTS for differential inhibitors of proliferation of Plasmodium falciparum line GB4 (AID 1816); details: Potency: Plasmodium falciparum GB4 proliferation inhibition;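 note: parasite growth measured after 72 h incubation; 0% = vehicle DMSO and -100% = reference inhibitor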
[12] = Quantitative High-Throughput drug screen in 47 multiple myeloma cell lines against the NCATS MIPE library collection: Delta47_JCRB cell viability assay (AID 1918925; note: nearly all actives have a fitted effect of over 45% in size)
Method in brief: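 Steps: seed 500 cells per well; pin-transfer MIPE 4.0 library; incubate 48 h at 37C, 5% CO2, humidified; add CellTiter-Glo, 5 min room temperature; read luminescence.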

[13] = Quantitative High-Throughput drug screen in 47 multiple myeloma cell lines against the NCATS MIPE library collection: Karpas620_DSMZ cell viability assay (AID 1918959); note: potency is the fitted concentration of half-maximal effect; nearly all actives have a fitted effect of over 30% in size
Method in brief: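 We plated 500 myeloma cells per well, pinned in MIPE 4.0 compounds, and incubated for 48 hours at 37C. ATP was then quantified with CellTiter-Glo, with DMSO and media-only wells defining 100% and 0%.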

[14] = qHTS Assay for Identifying Gametocytocidal Compounds (AID 743244);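 note: % is set by controls: 0 for no effect and ±100 for the full control effect; actives lower the fluorescent signal which means gametocytes are killed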; details: P. falciparum 3D7 stage III-V gametocytes, alamarBlue, 72 h; max response: hits give low values
Method in brief: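 Viability read-out was resazurin reduction (alamarBlue, 24 h) measured at Ex 525/Em 598 nm. Beforehand, late-stage (III-V) 3D7 P. falciparum gametocytes at 20,000 cells/well were incubated with compound 72 h at 37C under 5% CO2.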

DIV14 = assay: qHTS profiling for inhibitors of Plasmodium falciparum proliferation (AID 504749);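 note: 0% = DMSO vehicle and full inhibition = artemisinin control; nearly all actives have a fitted effect of over 60% in size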; details: P. falciparum in erythrocytes, SYBR Green DNA, 72 h; series mostly up to 28.7 µM
Method in brief: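 Each compound contacts P. falciparum-infected red blood cells for 72 h at 37 C; lysis buffer (Tris, EDTA, saponin, Triton X, SYBR Green I) is added and fluorescence measured next morning; values normalized to controls.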
Tags give direction and shape of the fitted curve.

CC(=O)OCC(=O)[C@@]12OC(C)(C)O[C@H]1C[C@H]1[C@@H]3C[C@H](F)C4=CC(=O)C=C[C@]4(C)[C@@]3(F)[C@@H](O)C[C@@]12C
active: Potency [10] 16.6 nM
inconclusive: Potency [1] 37200 nM [cytotoxic, single point] | Potency [2] 93.5 nM [cytotoxic, full curve, poor fit] | Potency [3] 4.2 nM [rising, full curve, poor fit] | Potency [5] 41.8 nM [cytotoxic, full curve, poor fit] | Potency [7] 26400 nM [cytotoxic, partial curve, poor fit] | Potency [8] 1 nM [cytotoxic]
inactive: Potency [4] | Potency [6] | Potency [9]

CC(N)(Cc1ccc(O)cc1)C(=O)O (stereo not drawn)
inactive: Potency [11]

CC(=O)C1=C(O)C=C2Oc3c(C(C)=O)c(O)c(C)c(O)c3C2(C)C1=O (stereo not drawn)
inactive: Potency [12] | Potency [3] | Potency [6] | Potency [10]
inconclusive: Potency [13] 20900 nM [cytotoxic, partial curve, poor fit] | Potency [2] 2.6 nM [cytotoxic, full curve, poor fit] | Potency [4] 526 nM [rising, full curve, poor fit] | Potency [5] 469 nM [rising, full curve, poor fit] | Potency [8] 1050 nM [rising, partial curve, poor fit]

CC(O)CCCCn1c(=O)c2c(ncn2C)n(C)c1=O (stereo not drawn)
inactive: max response [14] -9.87% | Potency [1] | Potency (DIV14)
